# Test results published in the supplement of paper PMC8728848.
# The list shows a part of the results.
# B1: B725 (Bifidobacterium sp) (protein)
# chain: MNNTTRAVIATAAIGALLIPLAGCGNTTTSSGKTELTVWSWDASIDRAAKSFMKANPDITVKVSNVGSTEETYTALNNAAQAGSGLPDVTLIEYLAIPQFVHSDTLMDLSKVYNTAKLKDTFTPGTWNSVNINGGLYAMPADSGPMAYFYDKDVFDKAGISEPPTTWDEFYEDAKKIRATGSYITSDSGDAGLFNAMMWAMGGHAYKLNDDKLTINIAKDKGAQRFMDLWQKMRDEDLIDVHTKTWTDDWMKSLGDGSIASLISGAWMANNLLQGVPQATGKFRVALLPTIDGTPINGEYGGSGLAITKKIPDGKLDAAKKFVEYVTTNDEGIDARVSNGSFPATTKTLNQKDFLAKTTLRNTDGSDNEFFGGQKYNEIFSQAAKDVTGKWEFLPFEPYARSVYNDNMGSFFAGKTSFRTAADNWQKALKDYAKDQGFTVQ
# What was measured:
# Experiment in all cases: glycan array binding signal (z-score within array); higher = stronger binding
# Settings in all cases: glycan notation: IUPAC condensed, linker removed
# [1] = molecular target: Gal(b1-6)Gal
# Method in brief: (§1)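 Negative Z-scores can be read as non-binding. The Z-score is calculated within each array and then averaged across arrays of one protein sequence at different concentrations or buffers and across linkers. Arrays, 3228 in all, were curated from the Consortium for Functional Glycomics database and kept only where the protein sequence was available.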
# [2] = molecular target: Gal3S(b1-3)GalNAc
# Method in brief: as §1
# [3] = molecular target: Gal3S(b1-3)GlcNAc
# Method in brief: as §1
# [4] = molecular target: Gal3S(b1-3)[Fuc(a1-4)]GlcNAc
# Method in brief: as §1
# [5] = molecular target: Gal3S(b1-4)Glc
# Method in brief: as §1
# [6] = molecular target: Gal3S(b1-4)Glc6S
# Method in brief: as §1
# [7] = molecular target: Gal3S(b1-4)GlcNAc
# Method in brief: as §1
# [8] = molecular target: Gal3S(b1-4)[Fuc(a1-3)]Glc6S
# Method in brief: as §1
# [9] = molecular target: Gal3S(b1-4)[Fuc(a1-3)]GlcNAc
# Method in brief: as §1
# [10] = molecular target: Gal3S(b1-4)[Fuc(a1-3)]GlcNAc6S
# Method in brief: as §1
# [11] = molecular target: Gal3S4S(b1-4)GlcNAc
# Method in brief: as §1
# [12] = molecular target: Gal3S6S(b1-4)GlcNAc
# Method in brief: as §1
# [13] = molecular target: Gal3S6S(b1-4)GlcNAc6S
# Method in brief: as §1
# [14] = molecular target: Gal4S(b1-4)GlcNAc
# Method in brief: as §1
# [15] = molecular target: Gal4S6S(b1-4)GlcNAc
# Method in brief: as §1
# [16] = molecular target: Gal6P(b1-4)GlcNAc
# Method in brief: as §1
# [17] = molecular target: Gal6S(b1-3)GlcNAc
# Method in brief: as §1
# [18] = molecular target: Gal6S(b1-3)GlcNAc6S
# Method in brief: as §1
# [19] = molecular target: Gal6S(b1-4)Glc
# Method in brief: as §1
binder,measurement,setting,value
B1,glycan array binding signal (z-score),[1],-0.194
same,glycan array binding signal (z-score),[2],-0.212
same,glycan array binding signal (z-score),[3],-0.224
same,glycan array binding signal (z-score),[4],-0.196
same,glycan array binding signal (z-score),[5],-0.222
same,glycan array binding signal (z-score),[6],-0.227
same,glycan array binding signal (z-score),[7],-0.209
same,glycan array binding signal (z-score),[8],-0.175
same,glycan array binding signal (z-score),[9],-0.228
same,glycan array binding signal (z-score),[10],-0.222
same,glycan array binding signal (z-score),[11],-0.213
same,glycan array binding signal (z-score),[12],-0.231
same,glycan array binding signal (z-score),[13],-0.173
same,glycan array binding signal (z-score),[14],-0.223
same,glycan array binding signal (z-score),[15],-0.215
same,glycan array binding signal (z-score),[16],-0.219
same,glycan array binding signal (z-score),[17],-0.217
same,glycan array binding signal (z-score),[18],-0.192
same,glycan array binding signal (z-score),[19],-0.205
